In patent US20190282663A1 (KEROS THERAPEUTICS, published 2019) one finds Kd data, which are given here for 1 molecule.

Holding throughout (assay): SPR (Biacore 3000), receptor captured on chip, ligand in solution
(SPR reads the build-up and loss of mass on a sensor chip optically.)

One experiment has as its target T1, Activin A (UniProt P08476 311-426).
T1 sequence (looked up): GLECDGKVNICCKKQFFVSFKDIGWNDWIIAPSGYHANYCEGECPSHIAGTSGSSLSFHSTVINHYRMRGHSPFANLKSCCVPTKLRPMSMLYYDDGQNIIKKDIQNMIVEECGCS

In another experiment the target is T2, Activin B (UniProt P09529 293-407).
T2 sequence (looked up): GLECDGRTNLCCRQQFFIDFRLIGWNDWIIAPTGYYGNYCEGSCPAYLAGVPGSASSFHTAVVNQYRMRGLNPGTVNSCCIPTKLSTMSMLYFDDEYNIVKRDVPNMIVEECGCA

Experiment [1] concerns the target T3, growth differentiation factor 11 (GDF11) (UniProt O95390 299-407).
T3 sequence (looked up): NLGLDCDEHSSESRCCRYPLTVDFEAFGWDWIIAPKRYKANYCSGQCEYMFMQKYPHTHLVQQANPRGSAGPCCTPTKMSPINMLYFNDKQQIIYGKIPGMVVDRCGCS

In a further experiment the target is T4, BMP-9 (UniProt Q9UK05 320-429).
T4 construct: also called bone morphogenetic protein 9
T4 sequence (looked up): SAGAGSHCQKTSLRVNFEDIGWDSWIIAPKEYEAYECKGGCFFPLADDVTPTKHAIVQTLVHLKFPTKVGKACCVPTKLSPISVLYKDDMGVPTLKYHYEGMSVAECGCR

B1: ActRIIa (SEQ ID NO: 73) (receptor)
chain: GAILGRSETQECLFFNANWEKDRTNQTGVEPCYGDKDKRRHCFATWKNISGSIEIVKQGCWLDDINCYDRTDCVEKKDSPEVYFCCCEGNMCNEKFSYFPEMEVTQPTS
notes: Expressed in HEK293 cells, purified on Protein-A Sepharose, captured on the chip with anti-mouse antibodies; also called Human ActRIIa, extracellular portion; wild-type extracellular ActRIIa; not shown: Carrier and linker
One may read the Kd as the constant that tells how readily two partners part at equilibrium. Higher therefore signals a looser complex. On to B1, for which the equilibrium dissociation constant (Kd) in the experiment with Activin A was found to be 1 nM; in the experiment with Activin B, 0.373 nM; in experiment [1] it was 0.081 nM; with BMP-9, 25 nM.
